# Source: the supplement of paper PMC3334620
# Whole data set: some 33,000 sequences, median “E-score (-0.5 to 0.5)” near -0.053, cut for the highest 2% near 0.37. This is one part of the list.
# Target: Hap1 (UniProt P0CE41)
# Assay: PBM E-score (8-mer binding enrichment) (E-score (-0.5 to 0.5)); higher = stronger / more preferred TF binding; most listed sequences are background and not binding sites
# Conditions: protein concentration: 200 nM; construct: GST-DNA-binding domain
# Procedure, shortened: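 Yeast transcription factors carrying a GST tag, as full-length proteins or DNA-binding domains, were produced by PURExpress in vitro transcription/translation. About 100-200 nM protein was applied to universal all-10-mer Agilent arrays, double-stranded by primer extension on fresh or once-stripped slides. Bound protein was detected with fluorescent anti-GST, and scans were normalised with masliner. The Universal PBM Analysis Suite gave each ungapped eight-base word, pooled with its reverse complement, an E-score, a modified Wilcoxon-Mann-Whitney statistic.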
# Chain of UniProt P0CE41 (P0CE41 whole entry): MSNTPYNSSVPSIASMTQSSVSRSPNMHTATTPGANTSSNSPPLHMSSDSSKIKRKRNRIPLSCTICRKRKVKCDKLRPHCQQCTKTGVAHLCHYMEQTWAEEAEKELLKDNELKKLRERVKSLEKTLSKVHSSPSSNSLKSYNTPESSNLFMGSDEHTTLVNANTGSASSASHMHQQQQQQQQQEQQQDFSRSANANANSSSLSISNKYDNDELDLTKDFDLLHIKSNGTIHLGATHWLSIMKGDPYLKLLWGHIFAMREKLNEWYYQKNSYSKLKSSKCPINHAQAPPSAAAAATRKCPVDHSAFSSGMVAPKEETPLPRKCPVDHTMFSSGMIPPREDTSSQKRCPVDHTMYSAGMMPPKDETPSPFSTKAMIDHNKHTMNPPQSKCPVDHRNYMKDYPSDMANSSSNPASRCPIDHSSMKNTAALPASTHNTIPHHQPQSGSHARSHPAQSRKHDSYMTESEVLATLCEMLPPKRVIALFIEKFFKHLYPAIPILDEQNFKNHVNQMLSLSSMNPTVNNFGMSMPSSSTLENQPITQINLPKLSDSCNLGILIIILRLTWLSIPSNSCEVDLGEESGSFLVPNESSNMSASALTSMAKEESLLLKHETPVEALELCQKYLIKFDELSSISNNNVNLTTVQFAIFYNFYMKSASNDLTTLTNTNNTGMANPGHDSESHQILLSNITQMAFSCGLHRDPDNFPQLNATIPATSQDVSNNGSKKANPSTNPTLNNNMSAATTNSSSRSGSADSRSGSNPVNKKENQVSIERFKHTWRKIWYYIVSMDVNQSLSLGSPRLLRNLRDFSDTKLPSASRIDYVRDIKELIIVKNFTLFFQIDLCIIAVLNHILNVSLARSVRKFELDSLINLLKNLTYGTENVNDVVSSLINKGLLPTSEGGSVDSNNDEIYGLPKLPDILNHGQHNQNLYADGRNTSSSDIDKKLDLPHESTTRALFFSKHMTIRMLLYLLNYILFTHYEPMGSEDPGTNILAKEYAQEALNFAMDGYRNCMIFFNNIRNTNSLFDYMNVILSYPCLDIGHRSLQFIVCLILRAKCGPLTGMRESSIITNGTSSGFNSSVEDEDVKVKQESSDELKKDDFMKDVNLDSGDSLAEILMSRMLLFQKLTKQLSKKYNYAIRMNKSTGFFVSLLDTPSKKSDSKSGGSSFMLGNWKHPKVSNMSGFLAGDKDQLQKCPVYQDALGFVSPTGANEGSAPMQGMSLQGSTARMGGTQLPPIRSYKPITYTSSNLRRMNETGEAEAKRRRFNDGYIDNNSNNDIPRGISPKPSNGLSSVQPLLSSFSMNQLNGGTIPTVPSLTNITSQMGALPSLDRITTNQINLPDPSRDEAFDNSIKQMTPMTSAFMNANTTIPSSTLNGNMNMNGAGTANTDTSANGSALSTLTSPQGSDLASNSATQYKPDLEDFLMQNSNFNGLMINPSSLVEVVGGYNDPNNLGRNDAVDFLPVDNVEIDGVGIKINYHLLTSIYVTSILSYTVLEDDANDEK
row,Sequence,PBM E-score
1,CTCTGACC,-0.174
2,CTTCTGTC,-0.0529
3,ACATGTAC,-0.0339
4,CGCATTTC,0.0766
5,GGCTAACC,-0.0472
6,GCTCGTCA,-0.202
7,AAACTAAA,-0.185
8,ACAGCTAC,-0.11
9,CTAATGTA,-0.0553
10,GAAGAAAC,-0.0589
11,ATAACGCA,0.0362
12,GTAGGTAA,-0.122
13,TAACCACA,-0.145
14,CATCGCTA,-0.125
15,TGTAAACA,-0.156
16,CCGGAAAG,0.307
17,ATCGATCG,-0.0935
18,ATGATGGA,-0.122
19,AATAGCTC,-0.106
20,CGACACGC,0.0146
21,GGTCATAC,0.172
22,GCCCCTCA,-0.0279
23,AACGTGAA,-0.18
24,ATCAGCGA,0.105
25,CTTATGGA,-0.0946

row,Sequence,PBM E-score
1,CTTACTGC,-0.00792
2,GCGACGTA,-0.0421
3,ACCGCGAA,0.288
4,CATACCCC,0.244
5,GTTATCAA,-0.221
6,CCAATAAC,0.00033
7,CAAGCTTC,-0.227
8,ACGGAACA,0.241
9,ACCGGCTG,0.274
10,AAACCTCC,0.0335
11,AGTTCTGC,0.142
12,CGCGTACG,0.228
13,ACTAATAA,-0.0326
14,CGATCTAG,-0.176
15,ACTCCGAT,0.406
16,ATGGGCTC,-0.218
17,AGACCTTG,-0.255
18,CGTGAGTC,-0.164
19,CAACACGC,-0.0088
20,GCTACGGA,0.201
21,CGCCCATC,-0.0657
22,AGACTTCG,-0.0746
23,ACGCCTAA,-0.0995
24,ACCCCCAA,-0.119
25,AAAGCGCG,0.073

row,Sequence,PBM E-score
1,CTAGACCC,0.0672
2,ATTTCCGA,0.432
3,TGTTTCAA,-0.162
4,GCAATATA,-0.0113
5,AAGTCTGC,-0.259
6,AAACAGCA,0.0297
7,AACAAAGA,-0.163
8,CTGGAGTA,-0.157
9,CTGTGCGA,-0.137
10,CAGGCTGG,-0.0521
11,CTAATCCC,0.279
12,AAGCACAC,-0.246
13,ATCCCGGC,0.339
14,CTATCGGA,0.452
15,CATCCCGG,0.312
16,ACCTGTAG,-0.131
17,GTGGCAGA,-0.188
18,ATGTGCCG,0.0929
19,ACAAGAAG,-0.0389
20,ATAAGAGG,0.117
21,GAACATGA,-0.0648
22,CCGCTTAC,-0.157
23,CGAAATTA,0.193
24,TTGCCAAA,-0.113
25,AACCCTGA,-0.00288

row,Sequence,PBM E-score
1,TACAAACA,-0.0533
2,CATGCCTA,-0.201
3,CCCTCGCC,-0.207
4,AACGCCAG,0.0301
5,ATCGATTG,-0.0851
6,GCAAGGGC,-0.166
7,CCGGCACC,0.341
8,CTTATGCC,0.112
9,CACGCGCG,0.0232
10,GCCTTGTA,-0.199
11,CTATCGCA,0.0719
12,ATGTGACA,-0.217
13,CCCAATCA,-0.0401
14,CGTAGGTA,0.00019
15,AAACTCAC,-0.0934
16,ACGACTGC,-0.215
17,GAGCCACA,-0.157
18,ATAGATTG,0.0362
19,CGCCAAAG,0.0304
20,CTGTGCTA,-0.111
21,TCGCGCGA,0.273
22,AGAACTAG,-0.23
23,ATTGATCC,0.305
24,TAACGTTA,0.0838
25,CGAATACC,0.135

row,Sequence,PBM E-score
1,AGATCCAA,-0.16
2,CAAGTGCG,-0.0281
3,CGCAGAAG,-0.098
4,ATACCGGA,0.437
5,AGGCCGGG,0.25
6,AGATCTCC,0.0876
7,GGGTCGAA,0.0247
8,CGAAACGC,0.0847
9,AGTAGCGG,0.216
10,GAATGCCA,-0.0688
11,GGCCTAAA,-0.022
12,ACCAGTGG,-0.135
13,ACAGACAG,-0.0727
14,GACGTCGA,-0.142
15,ACTGTCGA,-0.155
16,ATCCTTTC,-0.124
17,GGCGGGGA,0.284
18,CCGATCTA,0.249
19,ACAGTGGT,-0.156
20,GCAACGCC,0.0684
21,ATATTAAG,-0.0464
22,AAAACTTT,0.105
23,AACGGCCA,0.183
24,CACTGGTC,-0.0058
25,AAATGACC,0.0485

row,Sequence,PBM E-score
1,CGGTTACC,0.193
2,GCGTCAAA,-0.079
3,ACACGCGT,-0.0669
4,AGTTGCTC,-0.185
5,GCGTAGGA,0.0634
6,CTGAACAC,-0.08
7,AGCCATCC,0.0274
8,AGCTGGGA,-0.113
9,CACAGCCA,-0.18
10,AGGCCGTC,0.096
11,CGCCCAGC,0.108
12,GAGTACCC,-0.134
13,CACGACCA,-0.204
14,CTACCTGC,0.105
15,ATCCGAGA,0.346
16,AGGTATAG,-0.0745
17,AGGAGGAT,-0.214
18,CACCGGGC,0.365
19,GGGGGTGA,-0.0178
20,AACCCACT,0.194
21,AAGCCTAC,-0.268
22,CCCGCTTC,0.169
23,GTTAAAAA,0.0229
24,ATCAATTC,-0.00586
25,ACCAGCCT,-0.0444

row,Sequence,PBM E-score
1,GCTTGTCC,0.123
2,CCAGCGAG,-0.0775
3,CTTGGAAA,-0.221
4,GTTGCGCA,-0.0663
5,GTGTCCGA,0.339
6,AAGACCTT,-0.295
7,ATTCCGTC,0.213
8,TGTCCAAA,-0.133
9,GGCAGCCC,0.113
10,CCATGTCA,-0.288
11,GAAGGCAC,-0.0924
12,CCTTGGAC,-0.217
13,CTTAGTGC,-0.0311
14,GGGGACAC,-0.0417
15,AGCAAGCG,0.139
16,AGCCGGAG,0.404
17,AGGATCGA,-0.0345
18,ACAGGCAT,-0.264
19,CCTGAACC,-0.351
20,GTATACAC,-0.01
21,ATGGCGTC,-0.0274
22,AGCTTCCG,0.151
